Results from a collection of fitness landscapes (doi:10.1016/j.celrep.2020.107928).
Over roughly 81,000 sequences, “one-hybrid fitness for binding parS DNA” has its median near -0.17; the highest 2% begin near 0.51. This is one part of the list.

B1: Caulobacter ParB omega fusion; a variant is named by its letters at X, in order, B8GW30 (parent)
chain: MESVVVGEPGMSEGRRGLGRGLSALLGEVDAAPAQAPGEQLGGSREAPIEILQRNPDQPRRTFREEDLEDLSNSIREKGVLQPILVRPSPDTAGEYQIVAGERAWRAAQRAGLKTVPIMVRELDDLAVLEIGIIENVQRADLNVLEEALSYKVLMEKFERTQENIAQTIGKSXSHVANXMRLLXLPDEVQSYLVSGELTAXHARAIAAAADPVALAKQIIEGGLSVRETEALARKAPNLSAGKSKGGRPPRVKDTDTQALESDLSSVLGLDVSIDHRGSTGTLTITYATLEQLDDLCNRLTRGI

Variants of: B1
Assay: one-hybrid fitness for binding parS DNA (scaled: cognate 1, non-cognate 0); higher = stronger binding
Details: with parS DNA site
Method in brief: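 On M9-minus-histidine containing 0.1 mM IPTG and 5 mM 3-AT, E. coli USO cells with a HIS3 reporter, site 19 bp from the promoter, grew 48 hours at 37°C to select Caulobacter ParB libraries randomised at four specificity codons. Plasmids from before and after were Illumina-sequenced, with three replicate libraries pooled and variants under 10 reads left out. Fitness is the log change in variant-to-wild-type read ratio, rescaled against cognate and non-cognate.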

Variant	one-hybrid fitness for binding parS DNA
HPHF	≤ 0.2
AFRS	≤ 0.2
YLSY	≤ 0.2
QHPT	≤ 0.2
PWPF	≤ 0.2
CCLC	≤ 0.2
NRNH	≤ 0.2
QSRG	≤ 0.2
GWHS	≤ 0.2
DPQR	≤ 0.2
IWTG	≤ 0.2
RNEY	≤ 0.2
VRHM	0.248
WLKW	≤ 0.2
PFNK	≤ 0.2
HSRC	≤ 0.2
FTRY	≤ 0.2
LGMG	≤ 0.2
RHPC	0.367
KTSW	≤ 0.2
QSCY	≤ 0.2
RQMN	0.423
PCHM	≤ 0.2

Variant	one-hybrid fitness for binding parS DNA
DEWR	≤ 0.2
YSAC	≤ 0.2
NREV	≤ 0.2
AHAL	≤ 0.2
KLER	≤ 0.2
AEPW	≤ 0.2
PCGV	≤ 0.2
VFGR	≤ 0.2
SIIE	≤ 0.2
LIFG	≤ 0.2
QKNW	≤ 0.2
DARR	≤ 0.2
RVYR	≤ 0.2
MTSG	≤ 0.2
SKCC	≤ 0.2
VTDT	≤ 0.2
GEAN	≤ 0.2
DSFC	≤ 0.2
WSVR	≤ 0.2
PSRQ	≤ 0.2
HMNG	≤ 0.2
AMPS	≤ 0.2
SDHT	≤ 0.2

Variant	one-hybrid fitness for binding parS DNA
YYMS	≤ 0.2
LEHS	≤ 0.2
HMLD	≤ 0.2
KNIS	≤ 0.2
KIDC	≤ 0.2
RLRI	≤ 0.2
TKFP	≤ 0.2
TTGV	≤ 0.2
TQQC	≤ 0.2
WDPG	≤ 0.2
RYFP	≤ 0.2
TLNI	≤ 0.2
QHHH	≤ 0.2
PWNL	≤ 0.2
RKPK	≤ 0.2
CPNV	≤ 0.2
HPIT	≤ 0.2
NEAF	≤ 0.2
RLTP	≤ 0.2
VTRI	≤ 0.2
VMYS	≤ 0.2
